Among all 48,000 compounds or so, about 450 (0.94%) were called active. Inconclusive results, whose numbers are uncertain, are shown with a selection of clear calls. The call rests on the fitted dose curve; in most records, active means well fitted inhibition curve with a large enough effect; inconclusive means small, poorly fitted or top-dose-only effect; inactive means no such curve, though single readings can be large or run the other way. Potencies beside an inconclusive call are fits to weak or partial responses and may not hold up.
Test: Primary qHTS for Identification of Small Molecule Inhibitors of Huntingtin Promoter Activity; further: nearly all actives have a fitted effect of over 50% in size
Conditions: HEK293 HTT promoter firefly luciferase reporter (activity 0% = vehicle and -100% = no light), 24 h; series mostly up to 57.5 µM
How it was run: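 Luminescence was read after Dual-Glo reagent and a 10 min room-temperature incubation. Values were normalized to vehicle (0% activity) and zero RLU (-100% activity). Reporter HEK293 cells had been exposed to compounds (up to 57.5 uM final) for 24 h.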
Potency means the concentration at half of the fitted maximal effect; tags describe the fitted curve by direction and shape.

Potency, inconclusive:
C[C@H](NC(=O)C(=O)Nc1ccccc1C(C)(C)C)C(=O)N[C@@H](CC(=O)O)C(=O)COc1c(F)c(F)cc(F)c1F 6.11 µM [inhibitor, partial curve]
Cc1nc2c(-c3ccccc3)c(C)nn2c(C)c1CCC(=O)Nc1ccccc1F 31.6 µM [inhibitor, partial curve, poor fit]
CCOc1ccccc1NC(=O)Nc1cc2c(cc1N1CCCCC1)n(CC)c(=O)n2CC 39.8 µM [inhibitor, single point]
CCOc1ccc(OC(=O)c2c(-c3ccccc3Cl)noc2C)cc1 31.6 µM [inhibitor, partial curve, poor fit]
CCN(C(=O)C1CCCN(c2ncnc3c2nc2n3CCCCC2)C1)c1cccc(C)c1 (stereo unspecified) 35.5 µM [inhibitor, partial curve, poor fit]
CCOc1ccc(NC(=O)C2CCN(S(=O)(=O)c3c(C)noc3/C=C/c3cccs3)CC2)cc1 17.8 µM [inhibitor, partial curve, poor fit]
O=S(=O)(c1ccc(-c2csc(=Nc3ccc(OC(F)(F)Cl)cc3)n2CCCO)cc1)N1CCCC1 2.24 µM [inhibitor, full curve, poor fit]
Cc1ccc2c(c1)c(=O)c(C(=O)c1ccccc1)cn2Cc1ccccc1F 31.6 µM [inhibitor, single point]
COc1ccc(NC(=O)CC2C(=O)N(c3ccccc3)C(=O)N2CCC2=CCCCC2)cc1 (stereo unspecified) 2 µM [inhibitor, partial curve, poor fit]
COc1cc(NC(=O)C2CCN(S(=O)(=O)c3c(C)noc3/C=C/c3cccs3)CC2)cc(OC)c1 28.2 µM [inhibitor, single point]
Cc1cn(C)c(CC(=O)N2CCN(c3cccc(C(F)(F)F)c3)CC2)c1C(=O)O 25.1 µM [inhibitor, partial curve, poor fit]
O=C(NCC(c1cccnc1)N1CCc2ccccc21)c1ccc(F)c(F)c1 (stereo unspecified) 39.8 µM [inhibitor, single point]
Cc1ccc(C(C)C)c(OCC(=O)NCC2(N3CCOCC3)CCCCC2)c1 31.6 µM [inhibitor, single point]
COc1ccccc1-c1nc2c(c(SCC(=O)Nc3ccccc3F)n1)Cc1c(CO)cnc(C)c1O2 25.1 µM [inhibitor, partial curve, poor fit]
COc1ccc(NC(=O)C2CCCN(C(=O)c3cnn(-c4ccccc4)c3-n3cccc3)C2)cc1 (stereo unspecified) 25.1 µM [inhibitor, partial curve, poor fit]
CCOc1ccc(CCNC(=O)CS(=O)(=O)Cc2nc(-c3cccc(Cl)c3)oc2C)cc1 39.8 µM [inhibitor, single point]
COc1ccc(CCNc2nc(-c3ccc(Cl)cc3)cc(C(F)(F)F)n2)cc1OC 39.8 µM [inhibitor, single point]
CCOC(=O)c1c(C)[nH]c(C)c1S(=O)(=O)N1CCC(C(=O)N2CCN(c3cccc(C)c3C)CC2)CC1 28.2 µM [inhibitor, single point]
CCc1ccc(NC(=O)c2sc3nc4c(cc3c2N)CN(CC)CC4)cc1 22.4 µM [inhibitor, single point]
COc1ccc(Cl)cc1NC(=O)Cc1coc2c(C)c(C)ccc12 39.8 µM [inhibitor, single point]
Cc1ccc(CNS(=O)(=O)c2ccc(-c3cnc(C4CC4)o3)cc2)cc1 10 µM [inhibitor, partial curve]
CCCN(CCC)CC(O)Cn1cc(/C=C/C(=O)c2ccc(OC)cc2)c2ccccc21 (stereo unspecified) 39.8 µM [inhibitor, single point]
CCC(CC)C(=O)Nc1c(C(=O)N2CCN(c3ccccc3)CC2)oc2ccccc12 39.8 µM [inhibitor, single point]
CC1CCCCN1C(=O)c1ccc2c(c1)N(Cc1cccc(Cl)c1)C(=O)c1ccccc1S2=O (stereo unspecified) 11.2 µM [inhibitor, partial curve]
COc1ccc(CCNC(=O)c2cc(=O)c3cc(C)cc(C)c3o2)cc1OC 25.1 µM [inhibitor, partial curve]
O=C(OCc1ccco1)c1ccc2c(c1)N(Cc1cccc(F)c1)C(=O)c1ccccc1S2 28.2 µM [inhibitor, single point]
O=C(CSc1oc(-c2ccco2)nc1S(=O)(=O)c1ccc(Cl)cc1)c1ccc(Cl)cc1 39.8 µM [inhibitor, single point]
COc1ccc(CNC(=O)CC2N=C3c4ccccc4N=C(SCC(=O)Nc4ccc(N(C)C)cc4)N3C2=O)cc1 (stereo unspecified) 39.8 µM [inhibitor, single point]
COC1=C2C[C@@H](C)C[C@H](OC)[C@@H](O)[C@@H](C)C=C(C)[C@H](OC(N)=O)[C@@H](OC)C=CC=C(C)C(=O)NC(=CC1=O)C2=O 7.69 µM [inhibitor, full curve]
CCC(C(=O)Nc1cccc(C#N)c1)n1c(=O)c(-c2ccccc2NC(C)=O)nc2ccccc21 (stereo unspecified) 31.6 µM [inhibitor, single point]
COc1cc(CN(C(=O)COc2ccc(C)c(C)c2)c2ccccn2)cc(OC)c1OC 15.8 µM [inhibitor, partial curve]
O=C(NCc1ccc(F)cc1)c1ccc(NC(=O)N2CC3CCCN3c3ccccc32)cc1 (stereo unspecified) 39.8 µM [inhibitor, partial curve, poor fit]
COc1ccc(CNC(=O)COCc2cc(-c3cccs3)on2)cc1OC 39.8 µM [inhibitor, partial curve, poor fit]
CCc1c(C)sc2c1CCN(Cc1ccc(F)cc1)C2c1ccccc1 (stereo unspecified) 28.2 µM [inhibitor, single point]
O=C(c1ccc2c(c1)OCCO2)N(Cc1cccnc1)c1nc2ccc(F)cc2s1 8.91 µM [inhibitor, full curve, poor fit]
COc1ccc(NC(=O)c2ccco2)cc1NC(=O)COc1cc(C)cc(C)c1 15.8 µM [inhibitor, partial curve]
COc1ccc(CNC(=O)C2CCCN(S(=O)(=O)c3ccc4c(c3)CCCN4C(C)=O)C2)cc1 (stereo unspecified) 17.8 µM [inhibitor, partial curve, poor fit]
COc1ccccc1N1CCN(S(=O)(=O)c2ccc(F)c(C(=O)Nc3ccc(C)c(F)c3)c2)CC1 35.5 µM [inhibitor, partial curve, poor fit]
COc1ccc(CCNC(=O)c2cc(Sc3cccc(Cl)c3)nc3ccccc23)cc1OC 39.8 µM [inhibitor, single point]
Cc1ccc(C(C)C)c(OCCn2cc(C(=O)c3ccco3)c3ccccc32)c1 31.6 µM [inhibitor, partial curve, poor fit]
CN1C(C(=O)Nc2ccc(OC(F)(F)F)cc2)=CC(c2ccc3c(c2)OCO3)=NS1(=O)=O 39.8 µM [inhibitor, single point]
CCN(CC)c1ccc(NS(=O)(=O)c2ccc3c(c2)CCCN3C(C)=O)c(C)c1 20 µM [inhibitor, partial curve, poor fit]
CCc1ccc(Nc2cc(C)nc3nc(Cc4ccc(Cl)cc4)nn23)cc1 17.8 µM [inhibitor, partial curve, poor fit]
N#Cc1ccc(C(=O)N2CCN(c3nc4ccc(F)cc4s3)CC2)cc1 12.6 µM [inhibitor, partial curve, poor fit]
O=C(NC1CCCCC1)c1ccc2c(c1)sc1nc(-c3ccccc3)cn12 10 µM [inhibitor, partial curve]
O=C(Cn1nc(C(F)(F)F)c2c1CCCC2)Nc1ccc(Br)cc1 39.8 µM [inhibitor, single point]
Cc1ccc(-n2nnnc2CNC(=O)c2cc(C(F)(F)F)cc(C(F)(F)F)c2)cc1C 25.1 µM [inhibitor, single point]

Potency, inactive:
COc1ccc(-c2nc(SCC(=O)c3ccc(Br)cc3)n[nH]2)cc1
O=C(CSc1nc(-c2ccc(F)cc2)nc2c1Cc1ccccc1O2)Nc1cccc(C(=O)O)c1
Cc1coc2cc3oc(=O)c(CC(=O)N4CCCCC4)c(C)c3cc12
COC(=O)C1=C(C)NC(C)=C(C(=O)OCCc2ccc(N3CCN(C(c4ccccc4)c4ccccc4)CC3)cc2)C1c1cccc([N+](=O)[O-])c1 (stereo unspecified)
CCCCCNC(=O)C(=O)NCC(c1ccc2c(c1)OCO2)N1CCOCC1 (stereo unspecified)
Cc1ccc(S(=O)(=O)Nc2cc3c(cc2N2CCOCC2)n(C)c(=O)n3C)c(C)c1
CCc1ccc(CN(C(=O)c2cc3ccccc3oc2=O)C2CCS(=O)(=O)C2)cc1 (stereo unspecified)
Cc1cc(C)c(NC(=O)CSc2nccn2Cc2ccco2)c(C)c1
COc1ccc(OCC(=O)Nc2cc(-c3cccc(Cl)c3)nn2-c2ccccc2)cc1
